The source of these data is the RNAGym collection of RNA variant scans (doi:10.7554/elife.90254).

B1: LINE1-mini (parent)
chain: GGCAGAGCUCAACACAGCGUGGCAAAGUGGCUGUGGCUAGACUGCC

Read counts are not given, so values of variants with three or more changes are uncertain.

The variants in this series derive from B1. Kind of series: self-cleavage, relative activity (ratio to wild type); higher = more cleavage; in vitro, sequencing; the parent is a self-cleaving ribozyme.
As for GGCAGAGCUCAAAACAGCGUCGCAAAGUGGCUGUCGCGAGACUGCC, the self-cleavage turned out to be 0.

GGCAGAGCUCAAAACAGCGUGGCAAAGUGGCUGUGGCCAGACUGAC: the self-cleavage was found to be 0.11.

For GGCAGAGCUCAAAACAUCGUGGCAAAGAGGGUGUGGCUAGUCUGCC, the self-cleavage worked out at 0.05.

Turning to GGCAGAGCUCAAAACAGCGUUGCAAAGUGGCUGUGGCUAGACUUCC, the self-cleavage came to 0.07.

As to GGCAGAGCUCAAAACAGCGUGGCAAAGAGGCUGUGGCUACAGUGCC, the self-cleavage amounted to 0.07.

Consider GGCAGAGCUCAAAACAGCGUGGCAAACUGGCUGUGGCGAGAAUGCC, for which the self-cleavage was 0.01.

Consider GGCAGAGCUCAAAACAGCGUGGCAAAAUGGAUGUGGCUAGACUGCC, for which the self-cleavage was found to be 0.07.

In the case of GGCAGAGCUCAAAACAGCGUGGCAAAGUGGCGGUGUCUAGACUGCC, the self-cleavage is 0.04.

Regarding GGCAGAGCUCAAAACAGCGUGCCUAAGUGGCUGUGGCUAGACUGCU, the self-cleavage stood at 0.03.

Take GGCAGAGCUCAAAACAGCGUGGCAAAGUGUCUGUCGCUAGACUGCC: the self-cleavage is 0.11.

In the case of GGCAGAGCUCAAAACAGCGUGGCAAAGUGGCUGCGGCUAGACUGAC, the self-cleavage stood at 0.07.

With GGCAGAGCUCAAAACAGCGUGGCAAAGUGGCUGUGUCUAGACUACC, the self-cleavage turned out to be 0.08.

For the variant GGCAGAGCUCAAAACAGCGGGGCAAAGUGGCUAUGGCUAGACUGCC, the self-cleavage worked out at 0.01.

Regarding GGCAGAGCUCAAAACAACGUGGCAAAGUGGCUGUGGCUAGACUGCA, the self-cleavage worked out at 0.04.

On to GGCAGAGCUCAAAACAGCGUGGCAAAGUGGCUGUGGCGGGACUGCC, for which the self-cleavage turned out to be 0.03.

GGCAGAGCUCAAAACAGCGAGGCAAAGUGGCGGUGGCUAGACUGCC: the self-cleavage stood at 0.09.

In the case of GGCAGAGCUCAAAACAGCGAGGCAAAGUGGCAGUGGCUAGACUGCC, the self-cleavage worked out at 0.04.

With GGCAGAGCUCAAAACAACGUGGCAAAGUGGCUGUGGUUAGACUGCC, the self-cleavage was 0.1.

In the case of GGCAGAGCUCAAAACAGCGUUGCAAAGUGGCUGUGGCUAGAAUGCG, the self-cleavage is 0.07.

As to GGCAGAGCUCAAAACAUUGUGGUAAAAUGGCUGUGGCUAGACUGCC, the self-cleavage is 0.

For GGCAGAGCUCAAAACACCGUGGCAAAGUGGCUCUGGCUAGACUGCG, the self-cleavage turned out to be 0.02.

For GGCAGAGCUCAAAACAGCGUGGCAAAGUGGCUGUGGCCAGACUACC, the self-cleavage was found to be 0.01.

For GGCAGAGCUCAAAACAGCGUUGCAAACUGGCUGUGGCUAGACUGCC, the self-cleavage turned out to be 0.06.

For GGCAGAGCUCAAAACAUCUUGGCAAAGUGGCUGUGGCUAGAUUGCC, the self-cleavage worked out at 0.03.

On to GGCAGAGCUCAAAACAGCGUGGCAAAUUGGCUGUGGCUAGAAUGGC, for which the self-cleavage turned out to be 0.03.

For the variant GGCAGAGCUCAAAACAGCGCGGCAAAGUGGCUGUGGAUAGACAGCC, the self-cleavage was found to be 0.06.

Turning to GGCAGAGCUCAAAACAGCGUGACAAAUUGGCUGUGGCUCGACCGCC, the self-cleavage stood at 0.03.

With GGCAGAGCUCAAAACAGCGUGGCAAAGUCGCUGUGGCUAGCCAGAC, the self-cleavage worked out at 0.11.

As for GGCAGAGCUCAAAACAGCGUGGCAAAGUGGCUCUGGCUAUACUGCC, the self-cleavage worked out at 0.02.

With GGCAGAGCUCAAAACAGCGGGGCAAAUUGGCUUUGGUUAGACUGCC, the self-cleavage came out at 0.07.

With GGCAGAGCUCAAAACAGCGGGGCUAAGUGCCUGUGGCUAGACUGCC, the self-cleavage amounted to 0.09.

In the case of GGCAGAGCUCAAAACAGCGCCGCAAAGUGGCUGUGGCUAGACUGCC, the self-cleavage came to 0.07.

With GGCAGAGCUCAAAACAGCCUGGCAAAGUGGCUGCGGCUAGACUGCC, the self-cleavage turned out to be 0.06.

In the case of GGCAGAGCUCAAAACAGCGUGUCAAAGUGGUAGUGGCUAGACUGCC, the self-cleavage came to 0.1.

With GGCAGAGCUCAAAACAACGUGGCAAAGUGGCCGUGGCUAGACUCCC, the self-cleavage is 0.02.

As for GGCAGAGCUCAAGCCGGCGUGGCAAACUGGCUGUGGCUAGAAUGCC, the self-cleavage is 0.02.

As for GGCAGAGCUCAAAACAGCGUGGCAAAUUGGCUGUGACUAGACUGCC, the self-cleavage came to 0.09.

Regarding GGCAGAGCUCAAAACAGCGUCGCGAAGUGGCUAUGUCUAGACUGCU, the self-cleavage stood at 0.04.

On to GGCAGAGCUCAAAACAGCGUCGCAAAGUGGCUGUGGCUAGAGUGCC, for which the self-cleavage amounted to 0.09.

As for GGCAGAGCUCAAAACAGCGUGGCAAAGUGGCUCUGGCGAGACUGUC, the self-cleavage was 0.01.

Consider GGCAGAGCUCAAAACAGCGUGGCAAAGUGGCUCUGGGUAGACUGCC, for which the self-cleavage came out at 0.03.

As to GGCAGAGCUCAAAACAGCGUUGCAAUGUGGCUGUGGCUAGACUGCC, the self-cleavage is 0.22.

With GGCAGAGCUCAAAACACCGGGGCAAAGUGGCUGUGGCUAGACUGAC, the self-cleavage worked out at 0.02.

As to GGCAGAGCUCAAAACAGCGCGUCAAAGUGGCUGUGGCUCGACUGCC, the self-cleavage was 0.02.

Take GGCAGAGCUCAAGCCAGCGUGGCAAUGUGGCUGUGGCUAGACUGCC: the self-cleavage turned out to be 0.09.

GGCAGAGCUCAAAACAGCGGGGCAAAGUGGCUCUGGCAAUACUGCC: the self-cleavage is 0.03.

GGCAGAGCUCAAAACACCGUCGCAAAGUGGCUGUGGCUAGACUGCA: the self-cleavage stood at 0.09.

For the variant GGCAGAGCUCAAAACAGCGUGGCAAAGUGGCUGUGGCUAUACUGUC, the self-cleavage came out at 0.05.

Regarding GGCAGAGCUCAAAACAGCGUGGCAAAAUGGCUGUGGAUAGACUGCC, the self-cleavage came to 0.05.

With GGCAGAGCUCAAAACAGCCUGGCCAAGUGGCUGUGGCUGUACUGCG, the self-cleavage was determined as 0.02.

Regarding GGCAGAGCUCAAAACAGCUUGGCAAAGUGGCUGUUGCUAGACUGCC, the self-cleavage came to 0.33.

With GGCAGAGCUCAAAACACCGUGGCCAAGUGGCUGUGGCUAGACUGCC, the self-cleavage stood at 0.06.

Take GGCAGAGCUCAAGCCAGCGUGGCAAAGUGGCUGUGGCUAGCCUGCC: the self-cleavage was 0.08.

With GGCAGAGCUCAAAACAGCGUGGCAAAGUGGCUGUCGGUAGACUGCC, the self-cleavage was determined as 0.01.

As to GGCAGAGCUCAAAACAGCGUUGCAGAGUGGCUGUGGCUAGACUGCC, the self-cleavage came to 0.04.

Take GGCAGAGCUCAAAACACCGUGGCUAAAUGGCUGUGGCUAGACUGCC: the self-cleavage stood at 0.12.
